Test results reported in publication PMC12040169 (PLOS Biology, 2025).
Some of the results follow.

System: T1, C. trachomatis L2/434/Bu expressing GFP (CTL2-GFP)
T1 construct: L2/434/Bu GFP intracellular growth in HeLa cells
Parameters: species or system HeLa; C. trachomatis total inclusion area by high-content imaging, normalised to DMSO
Settings: total inclusion area; 28.5 h, 10 µM; inhibitor
In short: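 Imaging read-out: GFP inclusions and Hoechst nuclei captured by high-content imaging after fixation. Inclusion area/number = chlamydial growth; nuclei count = host cell viability. MIC calculated per earlier method.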

SMILES | % of control remaining
COc1ccc([C@@]23CC[C@@H](NC(=O)Nc4nc(Cl)cc(Cl)n4)C[C@@H]2N(C)CC3)cc1OC [CBK067083T] | 86.0784
Cc1nn(C)c(Oc2ccccc2OCc2ccccc2)c1[N+](=O)[O-] [CBK000281] | 84.5995
CSCCCNC(=O)N(CCc1ccccc1)Cc1ccccc1 [CBK155317] | 100.487
Cc1nn(-c2ccc(C(=O)O)cc2)c2c1C(=O)CC(C)(C)C2 [CBK286734] | 94.461
COc1ccc([C@@]23CC[C@@H](NC(=O)c4cccc(Cl)c4)C[C@@H]2N(C)CC3)cc1OC [CBK073982T] | 64.9186
Nc1nc(OCCN2CCOCC2)cnc1-c1cc(Cl)cc(Cl)c1 [CBK145198] | 63.5003
Cc1nc(C)c(C(=O)N2CCCC(C(=O)c3ccc(F)cc3)C2)s1 (centres unmarked) [CBK305296] | 34.1063
Cc1cccc(NC(=O)c2ccc3n[nH]c(=S)n3c2)c1 [CBK288389] | 64.4749
N/C(=N\OC(=O)COc1ccc2ccccc2c1)c1ccncc1 [CBK263737] | 91.2331
CCCS(=O)(=O)n1c(=O)n(CC(=O)c2ccc(N(CC)CC)cc2)c2ccccc21 [CBK106504] | 80.4955
Cc1cc2c(cc3c(=O)n(CC(=O)NC(C)(C)C)nc(C)n32)s1 [CBK284070] | 84.1928
O=C(C1CC1)N1CCC(c2nnc(-c3ccsc3)o2)CC1 [CBK283376] | 89.5087
O=C(Nc1ccc(Br)cc1)C1CCCN1S(=O)(=O)c1ccc(Cl)cc1 (centres unmarked) [CBK155481] | 109.521
COc1ccccc1-c1nnc(NCc2ccc3c(c2)OCO3)nc1-c1ccccc1OC [CBK286284] | 87.9531
O=C(CCC(=O)OCN1C(=O)c2ccccc2C1=O)Nc1ccc2ccccc2c1 [CBK265277] | 106.047
CC(C)N(C(=O)N1CCC2(CC1)CC(=O)c1ccccc1O2)C(C)C [CBK284010] | 84.5129
O=C(O)c1cc(-n2c(S)nnc2-c2ccc3ccccc3n2)ccc1Cl [CBK269512] | 80.4098
O=C(O)/C(O)=C/C(=O)c1ccc(Cl)cc1 [CBK261841] | 95.5635
CC(=O)Nc1nc(OCCN2CCCC2=O)cnc1/C=C\c1ccccc1 [CBK145371] | 95.7094
C=CCNC(=O)C1(Cc2ccccc2-c2cccnc2)CCOCC1 [CBK285217] | 74.7928
Cc1csc2c(N3CCCC3CC(O)c3cnn(C)c3)ncnc12 (centres unmarked) [CBK304477] | 41.1049
CCN1CCCc2cc(-c3cncn3CCCn3ccnc3C)ccc21 [CBK281810] | 98.0733
Cc1ccc(C2(O)CCN(Cc3c(C)nc4cc(C)ccn34)CC2)cc1 [CBK282733] | 114.568
Cc1cc(Cl)c(S(=O)(=O)NCc2ccccc2)cc1OCC(N)=O [CBK266588] | 123.482
CCC(Cc1c[nH]c2ccccc12)NC(=N)N (centres unmarked) [CBK010430] | 87.389

SMILES | % of control remaining
Cc1cc(C(=O)NCCn2ccnc2C)nc2ccccc12 [CBK281894] | 95.3268
Cc1cc(O)cc(O)c1/C=N\NC(=O)C1COc2cc3ccccc3cc2O1 (centres unmarked) [CBK262809] | 103.469
COc1ccc(-c2oc(C(=O)N(C)C)c(C(=O)O)c2-c2ccc(OC)cc2)cc1 [CBK001958] | 97.0534
CCOC(=O)CNS(=O)(=O)c1ccc(Cl)c(Cl)c1Cl [CBK034428] | 52.6549
O=C(Nc1sc2c(c1C(=O)NCc1cccnc1)CCCC2)c1ccc(Cl)cc1 [CBK265498] | 80.2208
O=C(NC1CCCc2c1cnn2-c1ccc(F)cc1)c1ccncc1 (centres unmarked) [CBK283929] | 95.1071
O=C(NCc1ccccc1OC1CCNC1)C1CCCO1 (centres unmarked) [CBK024503T] | 87.9173
Cc1nc2ccc(C(=O)NC(C)c3ccccn3)cc2s1 (centres unmarked) [CBK281890] | 89.1419
CCN1CCN(C(=O)CN(Cc2ccccc2)S(C)(=O)=O)CC1 [CBK266735] | 77.7838
CC(=O)c1cccc(NC(=O)N(CCO)C2CCCc3ccccc32)c1 (centres unmarked) [CBK305195] | 88.7473
CNC(=O)c1cc(NC(=O)NCC2CC(=O)N(CCOC)C2)ccc1F (centres unmarked) [CBK304403] | 75.9493
N#C/C(=C/c1ccccc1OCc1cccc([N+](=O)[O-])c1)c1ccc(C(=O)O)cc1 [CBK268748] | 106.642
O=C(NCc1ccc(Cl)cc1)c1c(O)c2cc(NS(=O)(=O)c3ccccc3)ccc2[nH]c1=O [CBK017589] | 95.3674
CSc1nsc(SCC(=O)Nc2ccc3c(c2)OCO3)n1 [CBK270044] | 89.3425
O=C(O)CCC(=O)NCC(=O)c1ccc(F)cc1 [CBK057384] | 57.7105
COc1ccc(OC)c(-c2nc(Nc3ccccc3Cl)sc2CC(=O)O)c1 [CBK264190] | 101.207
COc1ccc(-c2cnc(N3CCOCC3)c3nccn23)cc1 [CBK091285] | 107.952
Nc1c(C(=O)c2ccc3c(c2)OCO3)sc2nc(-c3cccnc3)ccc12 [CBK270186] | 95.2646
CN1CCC(N2CCN(C(=O)c3ccc(-c4ccc(OC(F)(F)F)cc4)nc3)CC2)CC1 [CBK156206] | 83.3521
CCOc1ccc(Oc2ccc(C(F)(F)F)cc2NC(=O)CCCC(=O)O)cc1 [CBK296993] | 81.5243
CC(=O)N[C@H]1CC[C@]2(C)CCC([C@H](C)C(=O)NC3CC3)[C@H](O)[C@H]2[C@@H]1C (some centres unmarked) [CBK289437] | 94.1317
Cc1ccc(NC(=O)c2nc(-c3ccc(C(=O)N4CCOCC4)cc3)cnc2N)c(O)c1 [CBK149152] | 12.5953
COc1ccccc1-n1nc(CC(C)C)nc1C(C)NS(C)(=O)=O (centres unmarked) [CBK306660] | 56.9521
CN(C)CCCN1CCCC2(CCN(C(=O)c3cc(F)c(F)cc3F)C2)C1 (centres unmarked) [CBK132005] | 78.7349
Cc1ccc2cc(CN(CCN(C)C)C(=S)Nc3ccccc3)c(=O)[nH]c2c1 [CBK134909] | 51.6095
